Values joined by “and” are separate entries in the source; they are usually repeats but may differ in a detail not shown here. Identical values can stand only once. The campaign covered roughly 190,000 compounds. About 520 (0.27%) were called active. Inconclusive means that the source gave no clear call. Such entries were picked first, then a sample of the others.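 Rule for the calls: active = GTP binding activity at least 20 points away from the 100% control level, either lower or higher; inconclusive = compound flagged as likely green fluorescent, judged across all proteins; inactive = the rest.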
These molecules were tested against Ras-related C3 botulinum toxin substrate 1 (Homo sapiens) (UniProt P63000) (assay: wildtype Rac1 GTP binding modulators, primary screen, biochemical, GST-Rac1 beads, flow cytometry, multiplex (AID 757)). Conditions: fluorescent GTP binding, at 10 µM, actives lie on both sides, 0 = cold GTP competed, 100 = untreated.
With `COc1ccc(NC(=O)CCN2CCN(S(=O)(=O)c3ccc(Cl)cc3)CC2)cc1` the GTP binding activity (% of control) was inconclusive: 91%. `FC(F)(F)c1cccc(Oc2nc(-c3ccccc3)nnc2C(F)(F)F)c1` was tested, and the GTP binding activity (% of control) was inconclusive: 105%. `O=C(NCC(c1cccs1)N1CCOCC1)c1ccc(Cl)c([N+](=O)[O-])c1` (configuration not stated) was tested, and the GTP binding activity (% of control) was inactive: 109%. In the case of `Clc1ccccc1/C=C/C=N/Nc1nc(N2CCOCC2)nc(N2CCOCC2)n1`, the GTP binding activity (% of control) was inactive: 98%. `CCCOc1ccc(N2C(=O)CC(N(O)c3ccccc3)C2=O)cc1` (configuration not stated) was tested, and the GTP binding activity (% of control) was inconclusive: 103%. For `CCC(CC)c1nnc(NC(=O)CCNC(=O)c2ccccc2Cl)s1`, the GTP binding activity (% of control) was inactive: 95%. `CSC1=C(C#N)C(c2ccc(C)s2)CC(=O)N1` (configuration not stated) was tested, and the GTP binding activity (% of control) was inconclusive: 107%. For `CCCCc1nc2n[nH]c(N)c2c2c1CCCC2`, the GTP binding activity (% of control) was inconclusive: 87%. In the case of `O=C(NCc1ccccc1)N(Cc1cc2cc3c(cc2[nH]c1=O)OCCO3)CC1CCCO1` (configuration not stated), the GTP binding activity (% of control) was inconclusive: 107%. In the case of `Cc1c(Cl)c([N+](=O)[O-])nn1Cc1ccc(C(=O)N/N=C\c2ccccn2)o1`, the GTP binding activity (% of control) was active: 75%. For `Cc1cc(NC(=O)CSc2nnc(C3CC3)n2-c2ccccc2)no1`, the GTP binding activity (% of control) was inactive: 98%. With `O=C(O)CC/C(=C\c1cc([N+](=O)[O-])ccc1Cl)c1nc2ccccc2s1` the GTP binding activity (% of control) was inconclusive: 76%. For `CN(C)c1nc(-c2ccccc2)ncc1S(=O)(=O)c1ccccc1`, the GTP binding activity (% of control) was inconclusive: 95%. `Cn1c(CSc2nc3ccccc3n2C)nc2ccccc21` was tested, and the GTP binding activity (% of control) was inconclusive: 105%. For `COc1ccc(NS(=O)(=O)c2cc(NC(=O)c3nc4nc(C)cc(C)n4n3)ccc2C)cc1`, the GTP binding activity (% of control) was inconclusive: 91%. For `CCOC(=O)c1c[nH]c2c(C)ccc(Cl)c2c1=O`, the GTP binding activity (% of control) was inconclusive: 96%. With `CCN1CCN(C(=O)CCc2nc3ccccc3c(=O)[nH]2)CC1` the GTP binding activity (% of control) was inconclusive: 103%. In the case of `CC(C)(C)NC(=O)NC(=O)CSc1ncccn1`, the GTP binding activity (% of control) was inconclusive: 95%. With `CC1(C)CN=C(N2CCN(c3ncnc4sc5c(c34)CCCC5)CC2)S1` the GTP binding activity (% of control) was inactive: 99%. `Brc1ccc(-c2ccc(/C=N/Nc3nc4ccccc4[nH]3)o2)cc1` was tested, and the GTP binding activity (% of control) was inactive: 103%. With `CC(=O)Cc1nsc(Nc2ccc(C)cc2)n1` the GTP binding activity (% of control) was inactive: 103%. `O=C(O)c1cccc(N2C(=O)/C(=C/c3ccc(SCc4ccc(Cl)cc4)o3)SC2=S)c1` was tested, and the GTP binding activity (% of control) was inconclusive: 88%. With `COc1ccc(-n2c(N)c(C#N)c3ccc([N+](=O)[O-])cc3c2=O)cc1` the GTP binding activity (% of control) was inconclusive: 97%. In the case of `Cc1nn(Cc2ccccc2Cl)c(C)c1N`, the GTP binding activity (% of control) was inconclusive: 108%. `COC(=O)c1c(NC(=O)CN2CCN(c3cccc(Cl)c3)CC2)sc(C)c1C` was tested, and the GTP binding activity (% of control) was inactive: 104%. For `Cc1nnc(NC(=O)CSc2ccc(-c3ccco3)nn2)s1`, the GTP binding activity (% of control) was inconclusive: 99%. With `COc1cc2c(cc1OC)C1Cc3ccc(OC)c(OC)c3CN1CC2` (configuration not stated) the GTP binding activity (% of control) was inconclusive: 106%. For `O=C(CSc1nc(-c2ccccc2Cl)ns1)Nc1ccc2c(c1)OCO2`, the GTP binding activity (% of control) was inconclusive: 99%. `COc1ccc(CN(C)Cc2nc(Cc3cccc(F)c3)no2)c2cccnc12` was tested, and the GTP binding activity (% of control) was inconclusive: 97%. For `Cc1ccc2[nH]c(=O)c(CN(Cc3ccc4c(c3)OCO4)Cc3nnnn3Cc3ccco3)cc2c1`, the GTP binding activity (% of control) was inconclusive: 98%. For `Cc1cc(Nc2ccc3c(c2)OCCO3)c2cc(Cl)ccc2n1`, the GTP binding activity (% of control) was inconclusive: 101%. With `Cc1c(O)ccc(NC(=O)/C=C/c2ccccc2)c1C` the GTP binding activity (% of control) was inactive: 98%. `Cc1cc(C)c(C)c(C(=O)c2ccccc2C(=O)O)c1C` was tested, and the GTP binding activity (% of control) was active: 150% [activator]. For `Oc1c(C=Nc2cccc3cccnc23)sc2ccccc12`, the GTP binding activity (% of control) was inconclusive: 122%. With `NC(=O)c1c(NC(=O)C2CCCO2)sc2c1CCCC2` (configuration not stated) the GTP binding activity (% of control) was inactive: 97%. For `Cc1nc2c(Cl)cc(Cl)cc2[nH]1`, the GTP binding activity (% of control) was inconclusive: 104%. `CC(=O)Nc1sc(/C(C#N)=C/c2ccc(Cl)c(Cl)c2)nc1-c1ccc(C)cc1` was tested, and the GTP binding activity (% of control) was inconclusive: 109%. `COCCCNCC(O)COc1ccccc1F` (configuration not stated) was tested, and the GTP binding activity (% of control) was inactive: 96%. With `COc1cc(C)c2c(c1C=O)Oc1c(c(C)c(O)c3c1C(O)OC3=O)OC2=O` (configuration not stated) the GTP binding activity (% of control) was inactive: 80%. With `COc1ccccc1/C=C1\SC(=S)N(CC(=O)Nc2nnc(C)s2)C1=O` the GTP binding activity (% of control) was inactive: 90%. With `CCN(CC)c1nc(N)c2c(N)n(-c3ccccc3C)c(=S)c(C#N)c2c1C#N` the GTP binding activity (% of control) was inconclusive: 90%. For `COc1ccc(-c2cnnn2-c2ccc(NC(=O)c3ccc(S(=O)(=O)N4CCCCC4)cc3)cc2)cc1`, the GTP binding activity (% of control) was inactive: 102%. In the case of `CCOC(=O)C1=C(CSc2nncn2C)NC(=O)NC1c1cc(OCC)ccc1OCC` (configuration not stated), the GTP binding activity (% of control) was inconclusive: 86%. `COc1cc2c(cc1NC(=O)COC(=O)/C=C/c1ccccc1)oc1ccccc12` was tested, and the GTP binding activity (% of control) was inconclusive: 86%. `CCc1ccc(NC(=O)C(C)OC(=O)C2CCC(=O)N2)cc1` (configuration not stated) was tested, and the GTP binding activity (% of control) was inactive: 104%. With `COC(=O)CSC1=C(C#N)C(c2ccccc2OC)C(C(=O)OC)C(=O)N1` (configuration not stated) the GTP binding activity (% of control) was inconclusive: 86%. For `O=C(CCc1ccccc1)Nc1ccc2ccccc2n1`, the GTP binding activity (% of control) was inactive: 95%. For `COc1cccc(/C=N/n2c(N)c(S(=O)(=O)c3cccs3)c3nc4ccccc4nc32)c1`, the GTP binding activity (% of control) was inconclusive: 82%. In the case of `O=C(N1CCCC1)C12CCC3CC(CC(C3)C1)C2`, the GTP binding activity (% of control) was inactive: 108%. For `Cc1cccc(CN2C(=O)N/C(=C/c3ccc(C)s3)C2=O)c1`, the GTP binding activity (% of control) was inconclusive: 119%. With `COC(=O)C1CCN(CC(=O)Nc2sc3c(c2C#N)CCC3)CC1` the GTP binding activity (% of control) was inconclusive: 92%. `Cc1cccc(N=c2c([N+](=O)[O-])nn(-c3ccc(Cl)cc3)n2O)c1` was tested, and the GTP binding activity (% of control) was inconclusive: 98%. In the case of `COC(=O)C1=C(O)CSC1=Nc1cccc(C(F)(F)F)c1`, the GTP binding activity (% of control) was inconclusive: 107%. In the case of `CCCCCn1c(N2CCOCC2)nc2c1c(=O)n(CC(N)=O)c(=O)n2C`, the GTP binding activity (% of control) was inactive: 104%. `CCC(=O)Nc1nc(-c2ccc3c(c2)OCCO3)cs1` was tested, and the GTP binding activity (% of control) was inactive: 103%. `Cc1cc(C)cc(-n2cc(C(=O)O)c(=O)cc2C)c1` was tested, and the GTP binding activity (% of control) was inactive: 102%. For `COc1ccc(CCNC(=O)[C@@H](NC(N)=O)C(C)C)cc1`, the GTP binding activity (% of control) was inconclusive: 88%. In the case of `O=c1[nH]c(SCc2cccc(Cl)c2)nc2ccccc12`, the GTP binding activity (% of control) was inconclusive: 97%. With `O=C(NCC(c1cccnc1)N1CCN(c2ccc(F)cc2)CC1)c1ccco1` (configuration not stated) the GTP binding activity (% of control) was inactive: 98%. `COc1ccccc1N1CCN(S(=O)(=O)c2cn(C)c(=O)n(C)c2=O)CC1` was tested, and the GTP binding activity (% of control) was inconclusive: 104%. In the case of `O=Cc1ccc2oc3nc4n(c(=O)c3c(=O)c2c1)CCCS4`, the GTP binding activity (% of control) was inconclusive: 91%. In the case of `O=C(Nc1ccc(N2CCN(C(=O)c3ccccc3F)CC2)cc1)c1ncn[nH]1`, the GTP binding activity (% of control) was inactive: 107%. `CC(=O)Oc1ccc2nc(CN3C(=O)c4ccc([N+](=O)[O-])cc4C3=O)oc(=O)c2c1` was tested, and the GTP binding activity (% of control) was inconclusive: 90%. `COc1ccc(CC(=O)OCc2nnc(-c3ccccc3)o2)cc1` was tested, and the GTP binding activity (% of control) was inactive: 88%. In the case of `CN(Cc1ccccc1)c1nc(N)c([N+](=O)[O-])c(Nc2cccc(F)c2)n1`, the GTP binding activity (% of control) was inactive: 103%. In the case of `CC(C)Oc1ccc(C(=O)N2CCCC2C(=O)O)cc1` (configuration not stated), the GTP binding activity (% of control) was inconclusive: 116%. `CSc1ncccc1C(=O)NC(C)C1CC2CCC1C2` (configuration not stated) was tested, and the GTP binding activity (% of control) was inactive: 99%. In the case of `O=C(COC(=O)CSc1ccc2ccccc2c1Br)NC1CC1`, the GTP binding activity (% of control) was inactive: 99%. `O=C(O)Cc1coc2cc3c(cc12)CCC3` was tested, and the GTP binding activity (% of control) was inactive: 88%. `Cc1cc(C)n2nc(C(=O)N(C)C(c3ccccc3)c3ccccc3)nc2n1` was tested, and the GTP binding activity (% of control) was inconclusive: 93%. For `COC(=O)CCC(=O)Nc1cccc([N+](=O)[O-])c1`, the GTP binding activity (% of control) was inconclusive: 93%. With `O=C(O)C1CSC(CCc2ccccc2)N1` (configuration not stated) the GTP binding activity (% of control) was active: 123% [activator]. With `CC1=NNC(=O)C1C(c1ccccc1)C(C#N)C#N` (configuration not stated) the GTP binding activity (% of control) was inconclusive: 96%. With `Cc1ccc(OCc2ccc(C(=O)NCc3cccnc3)cc2)cc1C` the GTP binding activity (% of control) was inactive: 99%. For `COc1ccc(-c2cn(-c3ccccc3)c3[n+]2CCS3)cc1`, the GTP binding activity (% of control) was inactive: 104% and inactive: 106%. For `Cc1ccccc1NC(=O)CSc1nnc(-c2ccccc2)n1-c1ccccc1`, the GTP binding activity (% of control) was inconclusive: 101%. `COc1ccc(NC(=O)CSC2CC(=O)N(c3ccc4c(c3)OCCO4)C2=O)cc1` (configuration not stated) was tested, and the GTP binding activity (% of control) was inconclusive: 108%. For `COCCCn1cc(C(=O)c2cc(OC)ccc2OCC(=O)Nc2cc(C)on2)cc(C#N)c1=O`, the GTP binding activity (% of control) was inactive: 106%. In the case of `Cc1cccc(-n2c(C)cc(/C=N/NC(=O)c3ccc(CN4CCOCC4)cc3)c2C)c1`, the GTP binding activity (% of control) was inconclusive: 91%. For `O=C(O)Cn1ncn(-c2ccc(OC(F)(F)F)cc2)c1=O`, the GTP binding activity (% of control) was inactive: 101%. For `O=S(=O)(O)c1nc2ccccc2n1Cc1ccc(Cl)cc1Cl`, the GTP binding activity (% of control) was inconclusive: 94%. `Cc1cc(C)cc(Nc2cc(C)nc3nc(C)nn23)c1` was tested, and the GTP binding activity (% of control) was inconclusive: 109%. In the case of `COc1ccc(C(=O)Nc2cc3c(cc2C#N)OCO3)cc1S(=O)(=O)NCc1ccco1`, the GTP binding activity (% of control) was inconclusive: 106%. In the case of `CCOc1ccc(CCNC(=O)COC(=O)c2cc(OC)c(OC)c(OC)c2)cc1OCC`, the GTP binding activity (% of control) was inactive: 101%. `C[N+]1(C2CCC3CCCC2C3O)CCCCC1` (configuration not stated) was tested, and the GTP binding activity (% of control) was inconclusive: 96%. With `COc1ccc(CC(=O)NNS(=O)(=O)c2ccc(F)cc2)cc1OC` the GTP binding activity (% of control) was inconclusive: 95%. With `COc1ccc2cc(C(=O)C3CCCN(C(=O)Cc4c(C)noc4C)C3)ccc2c1` (configuration not stated) the GTP binding activity (% of control) was inactive: 95%. In the case of `CS(=O)(=O)N(CC(=O)N1CCN(c2ccccc2)CC1)c1ccc(Cl)c(C(F)(F)F)c1`, the GTP binding activity (% of control) was inactive: 100%. With `C=C1CSc2nc(=O)c3c4c(sc3n21)CCCC4` the GTP binding activity (% of control) was inconclusive: 95%. With `COc1ccc(Cl)c2c1[nH]c1nc(SCc3ccccn3)nnc12` the GTP binding activity (% of control) was inconclusive: 88%. In the case of `Cc1c(C(=O)NCCCN2CCOCC2)sc2nc(-c3ccc(F)cc3)cn12`, the GTP binding activity (% of control) was inactive: 102%. With `CC(C)CC(C(=O)NC1CCCC1)N(Cc1ccc2c(c1)OCO2)C(=O)c1snc(C(N)=O)c1N` (configuration not stated) the GTP binding activity (% of control) was inconclusive: 95%.

— PubChem BioAssay AID757 (NMMLSC, 2007)
